Data as given in PubChem BioAssay AID588453 (National Center for Advancing Translational Sciences (NCATS), 2011).
“And” between values parts separate entries of the source, which are not always exact repeats. Identical values can stand only once. Out of some 390,000 compounds screened, about 4,000 (1%) were called active. Inconclusive means that the source gave no clear call. Such entries were picked first, then a sample of the others. Calls follow the shape of the dose curve; as a rule, active = well fitted inhibition curve with a large enough effect; inconclusive = small, poorly fitted or top-dose-only effect; inactive = no such curve, though single readings can be large or run the other way. A potency beside an inconclusive call is a rough fit, not a confirmed value. The source holds several records for some structures; these can differ, active in one and inactive in another.

What follows are compounds tested against Thioredoxin reductase 1, cytoplasmic (Rattus norvegicus) (UniProt O89049) (assay: qHTS Assay for Inhibitors of Mammalian Selenoprotein Thioredoxin Reductase 1 (TrxR1): qHTS). Settings: recombinant rTrxR1, NADPH fluorescence consumption, selenite substrate; series mostly up to 114 µM; activity change, negative = inhibition: at the top concentration.
Excerpt: The selenoprotein thioredoxin reductase (TrxR; EC 1.8.1.9) is a FAD containing homodimeric pyridine nucleotide-disulfide oxidoreductase with many cellular roles. Together with NADPH and its prime substrate thioredoxin (Trx), the enzyme forms the core of the Trx system. The mammalian Trx system exerts a wide spectrum of functions including redox regulation, antioxidant defense, regulation of transcription factors as well as support of cell growth and replication. Many of these functions involve the reduction of Trx, which may subsequently reduce a number of different substrates including ribonucleotide reductase, peroxiredoxins or NFkB. Mammalian TrxR itself also has a broad substrate specificity, reducing both protein and non-protein substrates, including low molecular weight compounds such as dehydroascorbate, lipoic acid, ubiquinone, and juglone. In addition, several drugs in clinical use for anticancer treatment are indeed known to target TrxR1.
This BioAssay is a validation of an NADPH fluorescence-based, dual-purpose qHTS rTrxR1 assay designed to find potential inhibitors and substrates of rTrxR1. For this particular BioAssay, actives are potential inhibitors. See related BioAssay for substrate data deposition.
NIH Molecular Libraries Probe Production Network [MLPCN]
NIH Chemical Genomics Center [NCGC]
Assay Provider: Elias Arner, Karolinska Institute
Assay protocol: 2 uL of reagents (buffer in column 4 as negative control and 90 nM rTrxR1 in columns 1-3 and 5-48) were dispensed into Greiner black solid-bottom 1,536-well assay plates, followed by 1 uL of NADPH (400 uM final concentration) to each well. The plates were centrifuged at 1000 rpm for 15 seconds and subsequently incubated for 5 min at room temperature (~22 deg C) to allow for rTrxR1 reduction. Compounds (23 nL) were then transferred via Kalypsys pin tool equipped with 1536-pin array (10 nL slotted pins, V&P Scientific, San Diego, CA). In addition, a duplicate 2-fold serial dilution of the control compounds auranofin, a known gold-based TrxR1 inhibitor, and juglone (5-hydroxy-1,4-naphthoquinone), a natural TrxR1 substrate, were pin-transferred to columns 2 and 3, respectively. After incubation for 15 min at room temperature (~22 deg C), 1 uL of selenite (400 uM final concentration) were dispensed to each well. The plate was immediately transferred to a ViewLux high-throughput CCD imager (PerkinElmer), wherein kinetic measurements of NADPH fluorescence (Ex 340 nm, Em 450 nm) were acquired (8 minute kinetic read, see Table 1). Read 1 was utilized to assess the capacity of a compound to serve as an rTrxR1 substrate, i.e. a decrease in NADPH fluorescence compared to the no-compound background is an indication of a substrate behavior for that particular compound. For inhibitory activity of a compound, delta values, computed as the difference in fluorescence intensity between the first and last reads of an 8-minute time kinetic window, were used. All reagents were diluted in an assay buffer consisting of 50 mM Tris-HCl, pH 7.5, 2 mM EDTA, and 0.01% Tween-20.
Throughout the screen, reagent bottle and all liquid lines were made light-tight to minimize reagent degradation. All screening operations were performed on a fully integrated robotic system (Kalypsys, San Diego, CA) containing one RX-130 and two RX-90 anthropomorphic robotic arms (Staubli, Duncan, SC). Library plates were screened starting from the lowest and proceeding to the highest concentration, and a 'double-pinning' step of the highest concentration was required to access higher concentrations of compounds. Vehicle-only plates, with DMSO being pin-transferred to the columns 5-48, were inserted uniformly at the beginning and the end of each library in order to monitor and record any shifts in the background, which can be affected by reagent dispensers or loss in enzyme activity over time. […]
% is scaled to controls: 0 for no effect and ±100 for the full control effect; potency is read from the fitted curve at half-maximal effect; tags tell the direction and shape of the fitted curve.
Also: nearly all actives have a fitted effect of over 65% in size.

UniProt O89049, sequence (O89049 whole entry, looked up): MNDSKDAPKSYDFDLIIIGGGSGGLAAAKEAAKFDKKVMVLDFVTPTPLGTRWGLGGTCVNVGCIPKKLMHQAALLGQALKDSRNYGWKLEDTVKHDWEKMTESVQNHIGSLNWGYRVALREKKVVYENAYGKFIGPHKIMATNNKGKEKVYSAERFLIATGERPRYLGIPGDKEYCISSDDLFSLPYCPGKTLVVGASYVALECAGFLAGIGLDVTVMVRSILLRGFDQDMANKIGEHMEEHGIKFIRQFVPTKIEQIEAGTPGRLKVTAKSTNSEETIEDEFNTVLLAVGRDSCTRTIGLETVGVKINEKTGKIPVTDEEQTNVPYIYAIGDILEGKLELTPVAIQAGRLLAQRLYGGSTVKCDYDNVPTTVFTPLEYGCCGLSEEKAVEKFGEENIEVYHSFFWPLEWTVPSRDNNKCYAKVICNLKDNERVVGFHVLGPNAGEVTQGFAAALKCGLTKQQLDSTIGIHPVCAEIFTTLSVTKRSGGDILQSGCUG

| Compound | Potency | activity change, negative = inhibition |
| --- | --- | --- |
| Cc1cc(/C=C/c2cccc3sc(C)[n+](CCCCI)c23)ccc1N(CCCl)CCCl | active: 15.8 µM | – |
| C[C@H](CCC(=O)O)[C@H]1CC[C@H]2[C@@H]3C(=O)C[C@@H]4CC(=O)CC[C@]4(C)[C@H]3CC(=O)[C@]12C | inconclusive: 70.8 µM [inhibitor, partial curve, poor fit] | – |
| Cc1ccc(-c2nc(NC(=O)c3ccc(S(=O)(=O)N(CCC#N)CCC#N)cc3)sc2-c2ccccc2)cc1 | inconclusive: 70.8 µM [inhibitor, partial curve] | – |
| CCN1CCC(O)(c2ccccc2)C(C(=O)c2ccccc2)C1 (stereo unspecified) | inconclusive: 0.501 µM [inhibitor, full curve, poor fit] | – |
| CN[C@@H](C)[C@H](O)c1ccccc1 | inactive and active: 25.1 µM | – |
| O=C1NC(=O)N(c2ccccc2)C(=O)/C1=C/c1coc2ccc(O)cc2c1=O | active: 22.4 µM | – |
| O=[N+]([O-])c1ccc(-c2ccccc2)c([As](=O)(O)O)c1 | inconclusive: 25.1 µM [inhibitor, single point] | – |
| CCOP(=O)(Nc1ccc2c(c1)C(=NNC(N)=S)c1ccccc1-2)OCC | inconclusive: 39.8 µM [inhibitor, partial curve, poor fit] | – |
| COc1cc(C=C2C(=O)NC(=O)NC2=O)ccc1OS(=O)(=O)c1ccccc1[N+](=O)[O-] | active: 6.31 µM | – |
| CCOP(=O)(OCC)/C(=N/OC(=O)c1ccccc1C)C(N)=O | inconclusive: 89.1 µM [inhibitor, single point] | – |
| Cc1cccc(Oc2nc3c(C)cccn3c(=O)c2/C=C(\C#N)c2nc3ccccc3s2)c1 | – | inactive: 48.7% |
| CCN(CC)CCN=Cc1c(O)n(CCc2ccccc2)c(=O)[nH]c1=O | inconclusive: 25.1 µM [inhibitor, partial curve] | – |
| Nc1ccccc1N=Cc1c(O)n(CCC2=CCCCC2)c(=O)[nH]c1=O | inconclusive: 70.8 µM [inhibitor, single point] | – |
| Nc1cc(Cl)c2nonc2c1[N+](=O)[O-] | inconclusive: 1.78 µM [inhibitor, full curve] | – |
| CN1CCc2nc3sc(C#N)c(N)c3c(-c3cccs3)c2C1 | – | inactive: -14.1% |
| CCOC(=O)N1CCCN(/[N+]([O-])=N/Oc2ccc([N+](=O)[O-])cc2[N+](=O)[O-])CC1 | active: 15.8 µM | – |

| Compound | Potency | activity change, negative = inhibition |
| --- | --- | --- |
| CCOc1cc(C=C2C(=O)NC(=O)NC2=O)ccc1OCC(=O)N1CCOCC1 | inconclusive: 44.7 µM [inhibitor, partial curve] | – |
| NCC#Cc1ccccc1 | – | inactive: 1.91% |
| O=C(c1ccc2c(c1)N(Cc1ccc(F)cc1)CCS2)N1CCC2(CC1)OCCO2 | inconclusive: 56.2 µM [inhibitor, partial curve] | – |
| COC(=O)C1=Nc2ccccc2/C1=C\c1c(O)n(-c2ccc(Br)cc2)c(=O)[nH]c1=O | inconclusive: 63.1 µM [inhibitor, partial curve, poor fit] | – |
| CCCc1nnc(NC(=O)CCC(=O)N2CCN(Cc3ccc(OC)c(F)c3)CC2)s1 | inconclusive: 89.1 µM [inhibitor, partial curve, poor fit] | – |
| COC(=O)N1CCN(C(=O)Cc2ccc(Cl)c(Cl)c2)C(CN2CCCC2)C1 (stereo unspecified) | inconclusive: 29.9 µM [inhibitor, partial curve] and inconclusive: 39.8 µM [inhibitor, partial curve, poor fit] | – |
| CCOC(=O)c1cc(C)sc1/N=C/C1C(=O)NC(=S)NC1=O | active: 0.708 µM | – |
| CN(CC#CCN1CCCC1)C(=O)c1cccc(Cl)c1 | inconclusive: 44.7 µM [inhibitor, partial curve, poor fit] | – |
| C[C@H]1CC[C@@]2(C)[C@@H](CC[C@@H]3[C@@H]2CC[C@]2(C)[C@@H](O)CC[C@@H]32)C1 | – | inactive: 21.5% |
| COc1ccc2[nH]cc(CCN(C)C)c2c1 | inconclusive: 6.7 µM [inhibitor, partial curve] | – |
| Cc1[nH]c(=S)c(C#N)c2c1CCCC2 | inconclusive: 89.1 µM [inhibitor, single point] | – |
| Cc1cccc(N2C(=O)NC(=O)/C(=C\C=C\c3ccco3)C2=O)c1 | inconclusive: 31.6 µM [inhibitor, partial curve] | – |
| O=C(CCN1CC2CCC(CC2)C1)c1cccs1 | active: 0.447 µM | – |
| C1=C(c2c[nH]c3ccccc23)CCN(Cc2ccccc2)C1 | – | inactive: 11.7% |
| O=c1ccc2cc(O[C@@H]3O[C@H](CO)[C@@H](O)[C@H](O)[C@H]3O)c(O)cc2o1 | inconclusive: 63.1 µM [inhibitor, single point] | – |
